This is one part of the list. Viral Rep nickase domains cut single-stranded DNA in vitro (1 h at 37 °C, 3 µM enzyme); the outer parts of the 90-letter strands are left off. The score is log2 (uncut reads / reads without enzyme); uncut sequences lie near 0, cut ones below; no hit call is given. Reads are scaled to the total, so uncut sequences can rise above 0 when many others are cut.
These sequences were tested on T1, Rep nickase domain of maize striate mosaic virus (assay: uncleaved DNA left, log2 of reads against the no-enzyme library (log2 ratio); higher = less cleavage (more negative = more Rep cleavage of the k-mer); sequences stand for … in CTCGTCCG…ACCGGAGA).
T1 sequence (residues 1-117 of Rep, tag left off): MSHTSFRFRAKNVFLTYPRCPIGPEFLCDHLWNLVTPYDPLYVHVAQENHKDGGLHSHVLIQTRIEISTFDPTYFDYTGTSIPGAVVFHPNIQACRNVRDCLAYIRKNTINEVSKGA
Procedure: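 A pool of 90-nt single-stranded DNAs with seven random bases just before the constant AC of the nick site (name = the seven bases) was cut by 3 µM recombinant His6-SUMO-tagged Rep nickase domain (300 nM DNA, 50 mM HEPES pH 8.0, 50 mM NaCl, 1 mM MnCl2, 1 h, 37 °C, three replicates). Uncut DNA was amplified and sequenced.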

Sequence	uncleaved DNA left (log2)
GGATCTG	1.65
TAATATC	-3.48
GCGTGGC	-0.212
CACAAAT	-0.589
GTCGATT	1.41
AAACAGG	-0.234
CAGGTCA	0.616
ACCATCA	-0.834
CCCGATT	-0.39
CCTCCGA	-0.825
AAGTAAC	-0.447
GAATTGG	-0.94
CTATACT	-1.81
CGTACTT	1.37
GCGCAGC	0.535
TCACGTC	-0.809
GATAAGT	-0.381
AACAAAG	-1.1
AGTGTCC	0.726
GGTTTGA	1.47

Sequence	uncleaved DNA left (log2)
TTGCAGT	-1.18
AGTACTC	0.48
ATTCAGC	-1.06
GCGTTAC	0.175
GTCTACG	0.735
ACTAACC	-0.374
TAAAGAT	0.799
TTAACGA	-0.691
TGGTCAG	-0.192
GTTCTGA	1.76
TCTCCAA	0.289
ACCGCAT	-0.384
TCCGCGT	-0.726
CCCAGAC	-0.187
AGGAATA	0.95
TCCCGCA	-0.94
CGGAAAG	-0.605
ATCTGCC	-0.245
ACCGTAA	-0.837
ACACAAC	-0.81

— the supplement of paper PMC7826260
